According to publication PMC4764707:
These are yes or no findings as the source states them, for the method shown. Binding seen in cells or lysates may run through a third protein. Some binding calls cover weakened binding; strength is not graded here. Each block holds one molecule with its values, some of them ahead of it.

By UniProt entry, the sequences of proteins in these tests, tags left out. Where a name states a change or a piece, a line headed by the entry shows the natural chain unless it says otherwise.
UniProt O24456: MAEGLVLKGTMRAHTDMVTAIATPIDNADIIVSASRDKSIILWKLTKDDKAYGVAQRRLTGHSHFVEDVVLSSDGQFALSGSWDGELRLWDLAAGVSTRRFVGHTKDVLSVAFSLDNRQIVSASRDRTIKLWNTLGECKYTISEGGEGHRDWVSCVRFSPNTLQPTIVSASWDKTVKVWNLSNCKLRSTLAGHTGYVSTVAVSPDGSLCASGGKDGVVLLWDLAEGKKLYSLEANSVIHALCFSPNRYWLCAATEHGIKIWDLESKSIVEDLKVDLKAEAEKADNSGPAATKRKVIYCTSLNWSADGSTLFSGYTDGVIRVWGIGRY

How the values were obtained:
[1] = molecular target: Arabidopsis RACK1A (Receptor for Activated C Kinase 1A), wild type, split-ubiquitin bait and prey fusions (Arabidopsis thaliana) (UniProt O24456); assay: split reporter; yeast split-ubiquitin system in S. cerevisiae JD53; bait fused to Cub-URA3, prey fused to NuI; interaction read as growth on 5-FOA (0.1%) plates, 30 C, 4 days, and as no growth on plates lacking uracil
[2] = molecular target: Arabidopsis RACK1A-Y248F, split-ubiquitin bait and prey fusions (Arabidopsis thaliana) (UniProt O24456); assay: as above
[3] = molecular target: Arabidopsis RACK1A, wild type, BiFC fusions nYFP-RACK1A and cYFP-RACK1A (Arabidopsis thaliana) (UniProt O24456); assay: split reporter; BiFC with nEYFP and cEYFP fusions, transient expression in onion epidermal cells by gene gun, 24 h in the dark, confocal microscopy
[4] = molecular target: Arabidopsis RACK1A-Y248F, BiFC fusions nYFP-Y248F-RACK1A and cYFP-Y248F-RACK1A (Arabidopsis thaliana) (UniProt O24456); assay: as above

Molecule: Arabidopsis RACK1A, wild type, BiFC fusions nYFP-RACK1A and cYFP-RACK1A (from UniProt O24456 1-327)
binding [3]: binds

Molecule: Arabidopsis RACK1A-Y248F, BiFC fusions nYFP-Y248F-RACK1A and cYFP-Y248F-RACK1A (from UniProt O24456 1-327)
binding [4]: no binding

B1: Plastocyanin (AT1G20340), split-ubiquitin prey (protein, UniProt P42699 69-167)
chain: IEVLLGGGDGSLAFIPNDFSIAKGEKIVFKNNAGYPHNVVFDEDEIPSGVDVAKISMDEQDLLNGAGETYEVALTEPGTYSFYCAPHQGAGMVGKVTVN
binding [2]: no binding
binding [1]: binds

Now from value to molecule:

binding [1]: binds
Molecule: Arabidopsis RACK1A (Receptor for Activated C Kinase 1A), wild type, split-ubiquitin bait and prey fusions (from UniProt O24456 1-327)

binding [2]: no binding
Molecule: Arabidopsis RACK1A-Y248F, split-ubiquitin bait and prey fusions (from UniProt O24456 1-327)
